Two molecules from PMC3738564 can be followed below.

Amino acid sequences for entries named in this document (tags omitted).
UniProt Q8CC27: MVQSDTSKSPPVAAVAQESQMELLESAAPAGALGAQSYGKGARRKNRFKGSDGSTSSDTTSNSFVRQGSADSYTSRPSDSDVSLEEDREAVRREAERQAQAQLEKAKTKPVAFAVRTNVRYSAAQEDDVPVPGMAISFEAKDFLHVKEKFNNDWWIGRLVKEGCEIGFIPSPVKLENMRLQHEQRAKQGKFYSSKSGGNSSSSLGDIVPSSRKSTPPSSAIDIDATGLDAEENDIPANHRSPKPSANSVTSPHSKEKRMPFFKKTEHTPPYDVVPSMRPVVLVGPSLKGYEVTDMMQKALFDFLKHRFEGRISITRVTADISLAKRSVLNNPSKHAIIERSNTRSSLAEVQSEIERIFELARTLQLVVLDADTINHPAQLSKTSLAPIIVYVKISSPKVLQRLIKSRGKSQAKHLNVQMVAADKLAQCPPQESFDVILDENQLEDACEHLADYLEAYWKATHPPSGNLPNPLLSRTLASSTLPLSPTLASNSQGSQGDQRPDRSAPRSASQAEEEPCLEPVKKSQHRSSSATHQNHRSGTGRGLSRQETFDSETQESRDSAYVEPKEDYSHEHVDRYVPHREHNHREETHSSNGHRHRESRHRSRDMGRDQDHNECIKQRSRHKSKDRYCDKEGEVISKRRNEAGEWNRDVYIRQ

The target of experiment [1] is β2-regulatory subunit of voltage gated calcium channels (Cavβ2) (mouse (endogenous in skeletal muscle)) (UniProt Q8CC27). As to the kind of experiment: co-IP; reverse immunoprecipitation with an antibody to Cavβ2 from wild type quadriceps lysate (1% digitonin, 0.05% NP-40); control antibody MW8; Western blot. In general terms: Immunoblotting shows a protein as a band on a membrane.

Experiment [2] addresses T1, β-dystroglycan (mouse (endogenous in skeletal muscle)) (UniProt Q62165).
T1 sequence: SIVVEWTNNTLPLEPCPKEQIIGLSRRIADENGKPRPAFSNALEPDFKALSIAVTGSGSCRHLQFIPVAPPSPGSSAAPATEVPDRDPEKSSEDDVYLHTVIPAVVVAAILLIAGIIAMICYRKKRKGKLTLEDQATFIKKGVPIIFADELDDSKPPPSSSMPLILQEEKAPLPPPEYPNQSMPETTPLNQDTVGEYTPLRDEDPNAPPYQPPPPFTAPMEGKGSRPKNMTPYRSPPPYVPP
In words: co-IP; β-dystroglycan precipitated with MANDAG2 on protein G beads from wild type mouse quadriceps lysate (1% digitonin, 0.05% NP-40; 1 mg protein); Western blot; also done on mdx and mdx/Utrn-/- lysates.

Experiment [3] has as its target T1, β-dystroglycan (mouse (endogenous in skeletal muscle)). As to the kind of experiment: co-IP; β-dystroglycan precipitated with MANDAG2 from mdx (dystrophin-deficient) mouse quadriceps lysate (1% digitonin, 0.05% NP-40); Western blot.
For experiment [4] the target is unchanged. As to the kind of experiment: condition: only in mdx/Utrn-/- muscle (no dystrophin, no utrophin); co-IP; β-dystroglycan precipitated with MANDAG2 from mdx/Utrn-/- (no dystrophin, no utrophin) mouse quadriceps lysate (1% digitonin, 0.05% NP-40); Western blot.
Experiment [5] deals with T2, α-dystroglycan (mouse (endogenous in skeletal muscle)), Q62165.
T2 chain: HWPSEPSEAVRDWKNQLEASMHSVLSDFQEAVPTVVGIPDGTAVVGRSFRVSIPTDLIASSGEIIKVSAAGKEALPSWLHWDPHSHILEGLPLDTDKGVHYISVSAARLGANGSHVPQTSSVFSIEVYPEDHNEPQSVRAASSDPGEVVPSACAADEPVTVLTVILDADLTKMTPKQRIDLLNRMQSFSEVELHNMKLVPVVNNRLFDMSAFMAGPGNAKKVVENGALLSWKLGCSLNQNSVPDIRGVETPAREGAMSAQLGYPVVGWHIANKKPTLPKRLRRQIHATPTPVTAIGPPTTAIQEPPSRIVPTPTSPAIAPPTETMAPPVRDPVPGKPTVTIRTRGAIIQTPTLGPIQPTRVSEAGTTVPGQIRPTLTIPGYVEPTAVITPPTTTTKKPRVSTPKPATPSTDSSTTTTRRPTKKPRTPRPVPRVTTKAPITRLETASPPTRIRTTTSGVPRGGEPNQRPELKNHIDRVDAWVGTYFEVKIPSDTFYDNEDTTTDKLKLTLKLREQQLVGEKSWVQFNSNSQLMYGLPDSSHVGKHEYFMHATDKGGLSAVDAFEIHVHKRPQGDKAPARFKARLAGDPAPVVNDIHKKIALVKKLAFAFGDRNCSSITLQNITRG
In words: pull-down; α-dystroglycan held by its carbohydrates on wheat germ agglutinin agarose beads; wild type mouse skeletal muscle solubilised in PBS pH 7.5 with 0.5% Triton X-100; 4 °C overnight; Western blot. The settings on record: remark: other sources report otherwise.

These are yes or no findings as the source states them, for the method shown. In cells and extracts the contact can be indirect. Some results given as binding are weak or reduced against the parent protein; the word gives no strength.

B1: Polymerase I and transcript release factor (Cavin-1) (protein, UniProt O54724 1-392)
chain: MEDVTLHIVERPYSGFPDASSEGPEPTQGEARATEEPSGTGSDELIKSDQVNGVLVLSLLDKIIGAVDQIQLTQAQLEERQAEMEGAVQSIQGELSKLGKAHATTSNTVSKLLEKVRKVSVNVKTVRGSLERQAGQIKKLEVNEAELLRRRNFKVMIYQDEVKLPAKLSVSKSLKESEALPEKEGDELGEGERPEDDTAAIELSSDEAVEVEEVIEESRAERIKRSGLRRVDDFKKAFSKEKMEKTKVRTRENLEKTRLKTKENLEKTRHTLEKRMNKLGTRLVPVERREKLKTSRDKLRKSFTPDHVVYARSKTAVYKVPPFTFHVKKIREGEVEVLKATEMVEVGPEDDEVGAERGEATDLLRGSSPDVHTLLEITEESDAVLVDKSDSD
With B1, the binding result is listed as “no binding” in experiment [1], “binds” in experiment [2], “no binding (condition: in mdx muscle (no dystrophin))” in experiment [3] and “no binding” in experiment [4].

B2: β-dystroglycan, Q62165 652-893 (protein)
chain: SIVVEWTNNTLPLEPCPKEQIIGLSRRIADENGKPRPAFSNALEPDFKALSIAVTGSGSCRHLQFIPVAPPSPGSSAAPATEVPDRDPEKSSEDDVYLHTVIPAVVVAAILLIAGIIAMICYRKKRKGKLTLEDQATFIKKGVPIIFADELDDSKPPPSSSMPLILQEEKAPLPPPEYPNQSMPETTPLNQDTVGEYTPLRDEDPNAPPYQPPPPFTAPMEGKGSRPKNMTPYRSPPPYVPP
modifications: here or on the partner: highly glycosylated; carbohydrate moieties bound by wheat germ agglutinin
Turning to B2, the binding result in experiment [5] is “binds”.
